Laboratory results reported in PubChem BioAssay AID1345082 (National Center for Advancing Translational Sciences (NCATS), 2018).
In all, about 94,000 compounds went through this assay and about 4,000 (4.3%) were called active. Inconclusive means that the source gave no clear call. Such entries were picked first, then a sample of the others. Calls come from the whole dose curve; as a rule, active = well fitted inhibition curve with a large enough effect; inconclusive = small, poorly fitted or top-dose-only effect; inactive = no such curve, though single readings can be large or run the other way. A potency beside an inconclusive call is a rough fit, not a confirmed value.

Assay: Cytotoxic Profiling in NIH 3T3 Cell Line of Diverse Libraries Using Quantitative High-Throughput Screening; note: nearly all actives have a fitted effect of over 55% in size
Settings: NIH 3T3 viability, CellTiter-Glo ATP luminescence, 48-72 h; series mostly up to 96.7 µM
In short: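 Mouse fibroblast NIH 3T3 cells, 400 per well, received compound via pintool and were incubated for 48 or 72 hr prior to CellTiter-Glo ATP luminescence measurement.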
Potency is the fitted concentration of half-maximal effect; tags give direction and shape of the fitted curve.

Row | SMILES | Potency
1 | CCOc1cccc(-c2nnc(CCC(=O)NC(C)c3ccccc3)c(=O)[nH]2)c1 (configuration not stated) | inactive
2 | Cc1nn(-c2ccccc2)c2c1C(C1CC1)N(CC1CN(C(=O)N(C)C)C1)C2=O (configuration not stated) | inconclusive: 50.1 µM [inhibitor, partial curve, poor fit]
3 | COc1cccc(CN2CCCCCCNC(=O)[C@@H]3C[C@@H](C(=O)N4CCc5ccccc5C4)C[C@@H]32)c1 | inconclusive: 50.1 µM [inhibitor, partial curve, poor fit]
4 | Cc1ccc(NC(=O)N2CCC(CCNC(=O)c3ccc(F)cc3)CC2)cc1F | inconclusive: 50.1 µM [inhibitor, partial curve, poor fit]
5 | CC[C@H]1CN(C(=O)c2ccnc(Cl)c2)CC[C@H]1CC(=O)NCCSC | inconclusive: 56.2 µM [inhibitor, partial curve, poor fit]
6 | O=C(Cc1ccc(Cl)cc1)N1CCC2(CC1)CC(O)CCO2 (configuration not stated) | inactive
7 | CC(C)CCN1CCC(N2CCN(S(=O)(=O)Cc3ccc(F)cc3Cl)CC2)C1=O (configuration not stated) | inactive
8 | Cc1ccc(C(=O)NC2CCN(c3cc(C(F)(F)F)nc(C)n3)CC2)cc1 | inconclusive: 44.7 µM [inhibitor, partial curve, poor fit]
9 | CCc1nc2nccc(-c3ccc(Br)s3)n2n1 | inconclusive: 39.8 µM [inhibitor, partial curve]
10 | CNC(=O)N1C[C@@H](CN(C)C)[C@H](NC(=O)c2cccnc2)C1 | inactive
11 | O=C1COc2ccc(-c3ccc4c(c3)OCO4)nc2CN1Cc1ccc(F)cc1 | inconclusive: 50.1 µM [inhibitor, partial curve]
12 | COCc1cn([C@H]2CO[C@H]3[C@@H]2OC[C@@H]3NC(=O)Nc2cccc(C#N)c2)nn1 | inconclusive: 112 µM [inhibitor, partial curve, poor fit]
13 | CC(=O)Nc1cc(-c2cccnc2)nn1-c1ccccc1 | inactive
14 | CN(C)c1cc(N2CCCC(NC(=O)NCc3ccco3)C2)ncn1 (configuration not stated) | inactive
15 | Cc1cc(C(=O)N[C@H](C)c2onc(C)c2C(=O)O)c(C)o1 | inactive
16 | Cc1ccccc1CCC1CCCN(CC(=O)N2CCOCC2)C1 (configuration not stated) | inconclusive: 44.7 µM [inhibitor, partial curve]
17 | CCn1ccc(C(=O)NCCc2ncc(C)n2C2CC2)n1 | inactive
18 | Cc1nn(C)cc1C(=O)N1CCC2(CC1)CN(c1ncccn1)CC2CO (configuration not stated) | inactive
19 | COc1ccc(CNC(=O)Cn2c(-c3ccc(F)cc3)nc(C)cc2=O)cc1OC | inactive
20 | CCCN(CC1CCOC1)C(=O)Nc1cc(Cl)ccc1OC (configuration not stated) | inconclusive: 56.2 µM [inhibitor, partial curve, poor fit]
21 | CCCNC(=O)N1CCCN(Cc2ccc3c(c2)OCO3)c2ccccc21 | inconclusive: 44.7 µM [inhibitor, partial curve, poor fit]

Row | SMILES | Potency
22 | c1cncc(CN2CCc3c(sc4ncnc(N5CCCC5)c34)C2)c1 | inconclusive: 50.1 µM [inhibitor, partial curve, poor fit]
23 | FC(F)(F)c1ccc2c(c1)nc1n2[C@@H](CNCc2ccccc2)COC1 | inconclusive: 100 µM [inhibitor, single point]
24 | O=C(Cc1ccc(F)cc1)N1CCC2(CC1)NC(=O)N(Cc1ccccc1)C2=O | inconclusive: 50.1 µM [inhibitor, single point]
25 | Cn1cc(-c2cnc3[nH]cc(CC(=O)NCc4cccc(F)c4)c3c2)cn1 | active: 25.1 µM
26 | O=C1CCC2(CCCO2)CCN1Cc1ccc(C(F)(F)F)c(F)c1 (configuration not stated) | inconclusive: 89.1 µM [inhibitor, single point]
27 | COc1ccc(C(=O)N2CCCC(c3nn(C)c(=O)n3C(C)C)C2)cc1OC (configuration not stated) | inactive
28 | CC1=C[C@@H](CNC(=O)COc2ccccc2)[C@H](C(C)C)C[C@H]1CC(=O)NCCN(C)C | inconclusive: 100 µM [inhibitor, partial curve, poor fit]
29 | Cc1nc2c(c(-c3ccc(O)cc3)n1)CN(Cc1ccc(F)cc1)CCC2 | inconclusive: 50.1 µM [inhibitor, partial curve, poor fit]
30 | COc1cc(NC(=O)N[C@H]2CO[C@H]3[C@@H]2OC[C@@H]3Nc2nccc(-c3ccc(-c4ccccc4)cc3)n2)cc(OC)c1 | inconclusive: 56.2 µM [inhibitor, partial curve, poor fit]
31 | CC(C)[C@@H]1C[C@@H]2C[C@@H](NCc3ccccc3)C[C@]2(c2ccccc2)CO1 | inconclusive: 50.1 µM [inhibitor, partial curve, poor fit]
32 | C=CC[C@@H]1CC=C[C@@H](C)N1C(=O)c1cc(OC)ccc1OC1CCN(C(=O)C2CC2)CC1 | inconclusive: 70.8 µM [inhibitor, single point]
33 | COc1ccc(Cn2c(=O)c(C(=O)Nc3cccc(Cl)c3)nc3cccnc32)cc1 | inactive
34 | COc1cccc(-c2noc3c2CN(C(=O)c2ccc(C)cc2OC)CC3)c1 | inconclusive: 50.1 µM [inhibitor, partial curve]
35 | CC1(C(=O)Nc2ccccc2)CN(Cc2ccccc2)Cc2ccc(N3CCOCC3)nc21 (configuration not stated) | inconclusive: 25.1 µM [inhibitor, full curve]
36 | O[C@@H]1C[C@@H](c2nc(-c3ccc4c(c3)OCO4)no2)N(C2CCOCC2)C1 | inactive
37 | O=C(NCc1ccncc1)C1CN(Cc2ccc(Br)cc2)CC12CCOCC2 (configuration not stated) | inactive
38 | Cc1ncc(CN2CCC(C(=O)Nc3cccc(-c4cc5ccccc5[nH]4)c3)CC2)cn1 | inconclusive: 56.2 µM [inhibitor, partial curve, poor fit]
39 | CCOC(=O)C1(Cc2ccccc2C(F)(F)F)CCNCC1 | inconclusive: 50.1 µM [inhibitor, partial curve, poor fit]
40 | COc1cccc(-c2cn3cc(C(=O)NCc4cccnc4)nc3s2)c1 | inconclusive: 39.8 µM [inhibitor, partial curve, poor fit]
41 | NCc1ccc(-c2cncnc2)cc1 | inactive
42 | Cc1ccc(OCCC2CCN(C(=O)CCc3ccccc3)C2)cc1 (configuration not stated) | inconclusive: 56.2 µM [inhibitor, partial curve, poor fit]
